Out of some 45,000 compounds screened, about 200 (0.44%) were called active. Not shown: some 7% with an inconclusive outcome. Calls follow the shape of the dose curve; as a rule, active = well fitted activation curve with a large enough effect; inconclusive = small, poorly fitted or top-dose-only effect; inactive = no such curve, though single readings can be large or run the other way. The list shows a part of the results.
assay: qHTS of TDP-43 Inhibitors: NCGC Sytravon Library Screen; conditions: yeast TDP-43 toxicity rescue, BacTiter-Glo growth, 24 h; series mostly up to 46.1 µM; growth rescue (activation): at the top concentration; also: 0% is about no effect; nearly all actives have a fitted effect of over 55% in size
Method in brief: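 TDP-43-expressing yeast, pregrown in raffinose, seeded at OD600 0.02 in galactose medium with compound for 24 hr at 30 deg C. Growth read by BacTiter-Glo luminescence, so rescue of toxicity appears as activation.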

SMILES | growth rescue (activation)
NC(=O)COc1ccc2oc(-c3ccccc3)cc(=O)c2c1 | inactive: 6.12%
CCOC(=O)/C(=C/c1ccc(OC)cc1)NC(=O)c1ccco1 | inactive: 10.5%
O=C(OCC(=O)N1N=C(c2ccc(Cl)cc2)CC1c1ccco1)c1cncc(Br)c1 (centres undefined) | inactive: 19.4%
COc1cc(NC(=S)NCc2ccc(S(N)(=O)=O)cc2)c(OC)cc1Cl | inactive: 7.88%
O=[N+]([O-])c1ccccc1/C=C/c1ccc2ccccc2n1 | inactive: 10.2%
O=C(OC1CCOC1=O)c1cccc(S(=O)(=O)Nc2cccc(Cl)c2)c1 (centres undefined) | inactive: 6.16%
CC(C)N(C(=S)Nc1ccc(S(=O)(=O)N2CCOCC2)cc1)c1ccccc1 | inactive: -10.3%
COc1ccccc1NC(=O)Nc1nc(C(N)Cc2ccc(Cl)cc2)cs1 (centres undefined) | inactive: 12%
Cc1cc(C)n2nc(C(=O)NCc3ccco3)cc2n1 | inactive: 12.3%
CCn1nnnc1SCC(=O)Nc1ccc(N(C)C)cc1 | inactive: -2.37%
Oc1ccc(-c2ccccc2)cc1CN1CCCCCC1 | inactive: -10.4%
CCc1ccccc1N1C(=O)c2ccccc2S1(=O)=O | inactive: -7.58%
CCOC(=O)c1sc2nc(C)nc(Nc3ccccc3)c2c1C | inactive: 5.23%
CCN(CC(=O)NCc1ccc(F)cc1)C(=O)c1oc2ccccc2c1C | inactive: 16.3%
NS(=O)(=O)c1cccc(NC(=O)COC(=O)C2(c3cccc(F)c3)CCCC2)c1 | inactive: -7.79%
COC(=O)c1cc(OCC(=O)Nc2ccc3c(c2)CCC3)cc(C(=O)OC)c1 | inactive: 2.68%
CC(=O)NC(CC(=O)Nc1nc(-c2ccccc2)c(C(C)=O)s1)c1ccccc1 (centres undefined) | inactive: -18.8%
COc1ccccc1/C=N/n1nnnc1N | inactive: -12.1%
COc1cccc(N2CCN(CC(=O)Nc3nc(C)c(C(=O)N(C)C)s3)CC2)c1 | inactive: 3.71%
COc1cc(-c2cc(NC(C)=O)c3ncc(-c4ccc(F)cc4)n3c2)cc(OC)c1OC | inactive: 9.51%
COc1ccc(CN2CCN(C(=O)CC(C)C)CC2)c(OC)c1OC | inactive: -1.35%
CCCOc1ccccc1/C=C(\C#N)C(=O)Nc1cccnc1 | inactive: 23.5%
CC(C)(C)NC(=O)C(=O)NCCC1=CCCCC1 | inactive: 8.6%
CCN(CC)CCNC(=O)/C(=C/c1cn(C)c2ccccc12)NC(=O)c1ccc(OC)c(OC)c1 | inactive: 4.8%
CN(CC(=O)OCC(=O)c1c(N)n(C)c(=O)n(C)c1=O)S(=O)(=O)c1ccc(Cl)cc1 | inactive: 10.5%
Cc1ccc2nc(-c3cccc(NC(=O)CSc4ccc(Cl)cc4)c3)oc2c1 | inactive: 1.38%
CCN(c1cccc(C)c1)S(=O)(=O)c1cccc2nsnc12 | inactive: 25.5%
Cc1cc(C(=O)CN2C(=O)NC(C)(CC(C)C)C2=O)c(C)n1-c1ccc2c(c1)OCO2 (centres undefined) | inactive: -34.7%
O=C(CNc1ccc2ccccc2c1)N/N=C/C=C/c1cccc([N+](=O)[O-])c1 | inactive: -3.35%

Reference: PubChem BioAssay AID1347073 (National Center for Advancing Translational Sciences (NCATS), 2019)
